This passage reports binding signal results from publication PMC7819943, “Rice protein-binding microarrays: a tool to detect cis-acting elements near promoter regions in rice”.

Some of the results follow.

This test addresses T1, OsWOX13 (Oryza sativa, UniProt Q5QMM3 1-267).
T1 sequence: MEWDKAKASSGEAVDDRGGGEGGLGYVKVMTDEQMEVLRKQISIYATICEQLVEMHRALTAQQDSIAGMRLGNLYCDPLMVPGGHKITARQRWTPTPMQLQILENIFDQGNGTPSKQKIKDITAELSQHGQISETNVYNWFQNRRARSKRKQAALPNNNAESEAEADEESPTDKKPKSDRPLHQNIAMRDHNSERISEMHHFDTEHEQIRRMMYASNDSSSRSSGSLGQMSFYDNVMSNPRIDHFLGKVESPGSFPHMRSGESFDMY
Description: protein-binding microarray (RPBM); PBS, 2% BSA, 51.3 ng/ul salmon testes DNA, 50 uM zinc acetate, 200 nM TF, 25 C, 1 h; high values mean tight binding. The conditions noted are these: protein: recombinant; tags: N-terminal polyhistidine and DsRed monomer fusion (pET32a); label: CyDye5-dUTP incorporated in the synthesized complementary strand; 3' TTTTT single-stranded linker to array surface; dsDNA, one strand shown. An outline of the steps: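 Transcription factors, each fused N-terminally to a polyhistidine tag and DsRed, were expressed in E. coli BL21-CodonPlus and purified on Ni–NTA. A custom Agilent array was made double-stranded by primer extension with Cy5-dUTP and blocked with 2% BSA. It was incubated with 200 nM protein in PBS, 2% BSA, salmon testes DNA and 50 µM zinc acetate at 25 °C for 1 h, then washed. The binding signal is per-feature fluorescence intensity (arbitrary units) read on an Axon 4000B scanner.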
Take “ACCCTTTAATCTATCACTGATAAAACATGCCTTTTAGAATCGGAGTCACCTAGTGCAG”: the binding signal is 5830 fluorescence intensity (a.u.).

Consider “TACTATCGGTAATTGTTGATATCTATAAAATTAGTTGATCCGGAGTCACCTAGTGCAG”, for which the binding signal is 5660 fluorescence intensity (a.u.).

Consider “ATTAAAATTTTAATTAATTGATAAAAGTTAATAATGGCCGCGGAGTCACCTAGTGCAG”, for which the binding signal was 34300 fluorescence intensity (a.u.).

On to “CCTACCATCTAGTATGATGATTAATTATGAACAGAGTGAGCGGAGTCACCTAGTGCAG”, for which the binding signal was 6980 fluorescence intensity (a.u.).

For “TGTAAACTAATAGCAAAATAAATTATAAATTCTACCTGTACGGAGTCACCTAGTGCAG”, the binding signal was 10700 fluorescence intensity (a.u.).

For “GTAAATTTGCAATTGCCCCAAAATGTTTATATTGGACGGACGGAGTCACCTAGTGCAG”, the binding signal is 21800 fluorescence intensity (a.u.).

In the case of “TCTTGATTTTGTTTGTTTTAAATCAGTGTGAAAATCATTACGGAGTCACCTAGTGCAG”, the binding signal is 10500 fluorescence intensity (a.u.).

On to “CTTAATTACAAATTTGAAATTAATTTGCTAGGTATGTTTACGGAGTCACCTAGTGCAG”, for which the binding signal was 63900 fluorescence intensity (a.u.).

Turning to “CGGTGCAATCAGATTACAGATCGAATAAATAGTTGTCAAGCGGAGTCACCTAGTGCAG”, the binding signal was 3660 fluorescence intensity (a.u.).

As to “CTGTTCTGTCAAAAGGCTATTGATTTATCCTCCGATCATACGGAGTCACCTAGTGCAG”, the binding signal was 11500 fluorescence intensity (a.u.).

As to “CTATTTGACTGAAAGTTAAAACCTTAAATGTTTAAATCAGCGGAGTCACCTAGTGCAG”, the binding signal was 13800 fluorescence intensity (a.u.).

On to “ATCTCTATTATCCCCATTATGTTCTTAATCATGCCCAGGACGGAGTCACCTAGTGCAG”, for which the binding signal was 5050 fluorescence intensity (a.u.).

“CTAAACAGGCCTTATATTATTTTCTTAGGGCTGTTTTGGACGGAGTCACCTAGTGCAG”: the binding signal is 6570 fluorescence intensity (a.u.).

As for “AGTTAACACATATCATCTACAGCCAACCTAATAGTATGTTCGGAGTCACCTAGTGCAG”, the binding signal was 3290 fluorescence intensity (a.u.).

“CTTAATATATATTAAACAACCTAGAATTAAAATTATTTTGCGGAGTCACCTAGTGCAG”: the binding signal was 7540 fluorescence intensity (a.u.).

Turning to “TTATTTGACTGATACCCATCAACTCCATACCCAAATCAAGCGGAGTCACCTAGTGCAG”, the binding signal was 20600 fluorescence intensity (a.u.).

“TCTGTGTTGACTCAAAATTGATTTGATCAGATACGGGACACGGAGTCACCTAGTGCAG”: the binding signal was 19400 fluorescence intensity (a.u.).

On to “CTTATTAATATAATAAACTAATAGATAAATATATAATTGTCGGAGTCACCTAGTGCAG”, for which the binding signal was 6800 fluorescence intensity (a.u.).

With “GTCCAATCACAGCGGCGCACAAAGGCGCGTGTGGAAAACACGGAGTCACCTAGTGCAG”, the binding signal was 4720 fluorescence intensity (a.u.).

As for “ATGGGAAATTGGGGATTTTGACCGTGAATTTGGGGATTTTCGGAGTCACCTAGTGCAG”, the binding signal is 5250 fluorescence intensity (a.u.).

With “ACTGATTGCTGTTGGTCATTCCCGGGCCAGTCCCCACTCCCGGAGTCACCTAGTGCAG”, the binding signal was 52400 fluorescence intensity (a.u.).

For “TAGTAATTATTTATGCTGGCGTGCAGTTGTCTTCTTCTGTCGGAGTCACCTAGTGCAG”, the binding signal was 19700 fluorescence intensity (a.u.).

For “GGCACATAAATGCCTAATTAGAACGAGTGGACAGGTCAATCGGAGTCACCTAGTGCAG”, the binding signal was 10500 fluorescence intensity (a.u.).
